From PubChem BioAssay AID1345082 (National Center for Advancing Translational Sciences (NCATS), 2018)
The whole screen tested about 94,000 compounds, of which about 4,000 (4.3%) were called active. This list was built around the results that the source calls inconclusive (neither active nor inactive); the mix of calls is not that of the screen. Calls follow the shape of the dose curve; as a rule, active = well fitted inhibition curve with a large enough effect; inconclusive = small, poorly fitted or top-dose-only effect; inactive = no such curve, though single readings can be large or run the other way. Where the call is inconclusive, the potency comes from a doubtful curve fit.
Potency is read from the fitted curve at half-maximal effect; tags tell the direction and shape of the fitted curve.

Experiment: Cytotoxic Profiling in NIH 3T3 Cell Line of Diverse Libraries Using Quantitative High-Throughput Screening; also: nearly all actives have a fitted effect of over 55% in size
Details: NIH 3T3 viability, CellTiter-Glo ATP luminescence, 48-72 h; series mostly up to 96.7 µM
Procedure, shortened: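 Viability of NIH 3T3 cells after 48 or 72 hr compound treatment at 37 °C was assessed by CellTiter-Glo, with luminescence imaged following a 10 min room-temperature step.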
For `CCN(CC)C(=O)[C@@H]1CCC[C@@H](NC2CCN(C)CC2)CN(C)C(=O)C1`, the Potency was “inactive”.
With `CCc1nn(-c2ccccc2)c(Oc2cccc(C)c2)c1CCC(=O)N1CCOCC1` the Potency was inconclusive: 50.1 µM [inhibitor, partial curve, poor fit].
With `O=C(c1cc(COc2ccc3c(c2)OCO3)[nH]n1)N1CCCC1c1ccccn1` (centres undefined) the Potency was “inactive”.
With `Cn1cc(CC(=O)N2CCCc3ncc(C(=O)NCc4ccoc4)cc32)c2ccccc21` the Potency was inconclusive: 89.1 µM [inhibitor, partial curve, poor fit].
In the case of `COC(C(=O)N1CC(=O)N(Cc2cccnc2)CC(OCc2ccccc2)C1)c1ccccc1` (centres undefined), the Potency is reported as “inactive”.
With `Cn1c(CN2CCOC[C@H]2c2ncc(-c3ccc(Cl)s3)[nH]2)nc2ccccc21` the Potency was active: 89.1 µM.
For `O=C(C1=NO[C@@H]2CN(c3ccc(OC(F)(F)F)cc3)C[C@H]12)N1CCOCC1`, the Potency was inconclusive: 50.1 µM [inhibitor, partial curve].
In the case of `Cn1ncc2c(C(=O)NCCCc3ccccc3)cc(-c3ccc([S+](C)(=O)[O-])cc3)nc21`, the Potency is reported as inconclusive: 44.7 µM [inhibitor, partial curve, poor fit].
With `O=C(Cc1ccccn1)NC1CCN(C(=O)c2ccc(-c3cncnc3)cc2)CC1` the Potency was “inactive”.
With `O=C(NC1CCCN(c2ccc3nnc(-c4ccccc4)n3n2)C1)c1ccccc1Cl` (centres undefined) the Potency was inconclusive: 56.2 µM [inhibitor, partial curve, poor fit].
For `COc1ccccc1-c1cn2c(n1)CO[C@@H](CNCc1ccc(F)cc1)C2`, the Potency was inconclusive: 63.1 µM [inhibitor, partial curve, poor fit].
For `O=C(c1ccc(F)cc1)N1CCC(N2CC3CCCN3C2=O)CC1` (centres undefined), the Potency was inconclusive: 100 µM [inhibitor, partial curve, poor fit].
With `O=C(N[C@H]1CCN2C(=O)c3cc(-c4ccsc4)ccc3NC(=O)[C@H]12)C1CCCC1` the Potency was inconclusive: 126 µM [inhibitor, single point].
With `COc1ccccc1-c1ccc(CN2CCC(NC(=O)Nc3ccccc3F)C2)cc1` (centres undefined) the Potency was active: 15.8 µM.
For `O=C([C@@H]1C[C@@H](O)[C@H](O)[C@@H]2NC(=S)N(c3ccc4c(c3)OCO4)[C@@H]21)N1CCOCC1`, the Potency was “inactive”.
In the case of `N#Cc1cccc(CN2CCOC[C@H]2c2ncc(-c3ccc(F)cc3)[nH]2)c1`, the Potency is reported as inconclusive: 56.2 µM [inhibitor, partial curve, poor fit].
With `O=c1[nH]c(C2CCCN(CC3CCCC3)C2)nc2ccc(F)cc12` (centres undefined) the Potency was active: 39.8 µM.
With `CC(C)NC(=O)Cc1cccn1-c1ccc(F)cc1` the Potency was “inactive”.
In the case of `COc1ccc(S(=O)(=O)NC[C@H]2COCc3nc4c(C)cccc4n32)cc1`, the Potency is reported as inconclusive: 10 µM [inhibitor, full curve].
With `O=C(NC1CCCC1)c1cccc2c1CCN2S(=O)(=O)c1ccccc1F` the Potency was active: 35.5 µM.
With `O=C(Cc1cccc(Cl)c1)N1CCC(n2cc(-c3nc(-c4ccccc4)no3)nn2)C1` (centres undefined) the Potency was inconclusive: 44.7 µM [inhibitor, partial curve, poor fit].
For `CCN1c2cc(C(N)=O)ccc2C(=O)N2CCCCC21` (centres undefined), the Potency was “inactive”.
With `CC(=O)Oc1c(-c2ccc(NC(=O)c3ccco3)cc2)c(C2CC2)nn1-c1cccc(C)c1` the Potency was inconclusive: 50.1 µM [inhibitor, partial curve, poor fit].
In the case of `COCCNC(=O)c1ccc2c(c1)N(C)C(CC(=O)NCc1ccon1)CO2` (centres undefined), the Potency is reported as “inactive”.
For `CCN1C(=O)CCN(C(=O)Nc2ccc(C)c(C)c2)CC12CCOCC2`, the Potency was inconclusive: 35.5 µM [inhibitor, full curve, poor fit].
With `Cc1ccc(NC(=O)N2CCN(c3nnnn3-c3cccc(C(F)(F)F)c3)CC2)cc1F` the Potency was inconclusive: 44.7 µM [inhibitor, partial curve, poor fit].
In the case of `CCN(CC)c1cc(CCC(=O)NCCN2CCCCCC2)ccn1`, the Potency is reported as “inactive”.
For `CCCCCC(=O)N1CC[C@@H](CC(=O)NCc2cccs2)[C@@H](CC)C1`, the Potency was inconclusive: 100 µM [inhibitor, single point].
With `COc1ccc(Nc2ccnc(N3CCC(C(=O)NCc4ccc(F)cc4)CC3)n2)cc1` the Potency was active: 39.8 µM.
In the case of `Cn1ncc2c(C(=O)NCc3ccc(F)cc3)cc(-c3ccc(C(F)(F)F)cc3)nc21`, the Potency is reported as inconclusive: 70.8 µM [inhibitor, partial curve, poor fit].
In the case of `COCc1nc(C2CCN(C(C)=O)C2)no1` (centres undefined), the Potency is reported as “inactive”.
In the case of `CC(C)(O)CCc1cccc(C(=O)NC2CCN(c3ncccc3C#N)CC2)c1`, the Potency is reported as inconclusive: 79.4 µM [inhibitor, partial curve, poor fit].
With `CC(=O)NCCc1ccc(CC2CCN(S(=O)(=O)N(C)C)CC2)cc1` the Potency was inconclusive: 79.4 µM [inhibitor, partial curve, poor fit].
For `C[C@@H]1CN(Cc2nc3c(n2Cc2ccccc2)C(=O)N(Cc2ccccc2F)CCN3)C[C@H](C)O1`, the Potency was inconclusive: 63.1 µM [inhibitor, partial curve, poor fit].
For `Cc1nc(C)c(C(=O)N2CCC(N3C(=O)C4(CCCC4)C3c3ccccc3)CC2)s1` (centres undefined), the Potency was inconclusive: 70.8 µM [inhibitor, partial curve, poor fit].
In the case of `Cc1nn(-c2cccc(Br)c2)c(C)c1[C@@H]1C=C[C@@H](NS(=O)(=O)c2ccccc2)C1`, the Potency is reported as inconclusive: 39.8 µM [inhibitor, partial curve, poor fit].
With `O=C1CCN(C(=O)c2ccc3ccccc3n2)CCCC(CO)CCN1` (centres undefined) the Potency was “inactive”.
In the case of `N#Cc1ccc(C(=O)N2CCN(c3cc(-c4ccc(Cl)cc4)[nH]n3)CC2)cc1`, the Potency is reported as inconclusive: 39.8 µM [inhibitor, partial curve, poor fit].
For `O=C(c1cnccn1)N1CCCC1c1noc(CO)n1` (centres undefined), the Potency was “inactive”.
For `Cc1ccc(C(=O)N2CCC3(CC2)CC(N(Cc2ccccc2)C2CC2)CCO3)cc1F` (centres undefined), the Potency was inconclusive: 44.7 µM [inhibitor, partial curve, poor fit].
In the case of `CCOC(=O)CN1C(=O)CN(C(=O)Cc2ccccc2)CCC(OC)c2ccccc21` (centres undefined), the Potency is reported as inconclusive: 31.6 µM [inhibitor, partial curve, poor fit].
In the case of `CC(=O)N1CCC(=O)N(CC2CC2)Cc2cc3c(cc21)OCO3`, the Potency is reported as “inactive”.
In the case of `CCn1nc(CC(C)C)cc1C(=O)N(C)Cc1cccc(-n2cccn2)c1`, the Potency is reported as inconclusive: 35.5 µM [inhibitor, partial curve].
With `Cc1nn(-c2ccccc2)c2c1C(C)N(CC1CN([S+](=O)([O-])c3cccc(C(F)(F)F)c3)C1)C2=O` (centres undefined) the Potency was inconclusive: 39.8 µM [inhibitor, partial curve].
For `O=C(c1ccccc1C1CCNC1)N1CCN(C/C=C/c2ccccc2)CC1` (centres undefined), the Potency was inconclusive: 89.1 µM [inhibitor, single point].
With `COc1cccc(NC(=O)N[C@H]2C[C@@H](c3nc(C)no3)N(C)C2)c1` the Potency was “inactive”.
In the case of `Cc1cccc(Cn2c(-c3ccc(F)cc3)nc(C)c(CCO)c2=O)c1`, the Potency is reported as “inactive”.
For `Cn1cc(-c2ccc(Cl)cc2)cc1C(=O)O`, the Potency was inconclusive: 50.1 µM [inhibitor, partial curve, poor fit].
In the case of `CC(C)c1ccc(NC(=O)N2CCc3[nH]c4ccc(F)cc4c3C2)cc1`, the Potency is reported as inconclusive: 44.7 µM [inhibitor, partial curve, poor fit].
With `CN1CC2(CCCN(CC3CC3)C2)c2cc(C(=O)NCCc3ccccn3)ccc21` (centres undefined) the Potency was “inactive”.
For `CNc1cccnc1OC1CCN(S(=O)(=O)c2ccc3c(c2)CCC3)C1` (centres undefined), the Potency was inconclusive: 44.7 µM [inhibitor, partial curve, poor fit].
For `COCCN1CCCCCC(O)c2cc(C(=O)N(C)Cc3cccnc3)ccc21` (centres undefined), the Potency was inconclusive: 44.7 µM [inhibitor, partial curve, poor fit].
With `O=C(c1ccc(C(F)(F)F)cc1)N1CCCC(c2nn(-c3ccccn3)c(=O)[nH]2)C1` (centres undefined) the Potency was “inactive”.
For `CCOC(=O)[C@H]1C[C@]2(CCCCNC2=O)N(C(=O)/C=C/c2ccccc2)[C@H]1c1ccco1`, the Potency was inconclusive: 70.8 µM [inhibitor, partial curve, poor fit].
For `COCCNC(=O)CCCN1C(=O)COc2ccc(C(=O)COc3ccc(C)cc3OC)cc21`, the Potency was “inactive”.
With `Cc1ccc(OC2(C(=O)O)CCN(Cc3ccc(CO)o3)CC2)cc1` the Potency was “inactive”.
For `COc1ccc(OC)c(CN2CCCn3nc(C)c(-c4ccccc4C(C)C)c32)c1`, the Potency was active: 35.5 µM.
In the case of `CC(C)(C)c1cc(C[C@@H]2C[C@H](NC3CCOCC3)C2(C)C)no1`, the Potency is reported as inconclusive: 100 µM [inhibitor, single point].
For `COC(=O)C1=C(C)N=C2SC=C(CC(=O)NCc3ccccc3)N2C1c1ccccc1F` (centres undefined), the Potency was inconclusive: 44.7 µM [inhibitor, partial curve, poor fit].
For `COCCNC(=O)[C@H]1C[C@H](Oc2cccnc2)CN1C(=O)NC1CCCC1`, the Potency was “inactive”.
With `COc1ccc2[nH]c3c(c2c1)CCNC31CCN(C(=O)Cn2c(=O)oc3ccccc32)CC1` the Potency was “inactive”.
In the case of `Cc1cc(C)c(CNC(=O)c2nc(-c3ccccc3C#N)cc3c2ccn3C(C)C)c(=O)[nH]1`, the Potency is reported as inconclusive: 44.7 µM [inhibitor, partial curve, poor fit].
For `CNC(=O)[C@@H](c1ccccc1OC)N1CCC[C@H]1C(=O)N1CCN(C)CC1`, the Potency was “inactive”.
For `COC(=O)[C@@H]1Cc2c([nH]c3ccccc23)[C@H]2C[C@@H](NCCNC(C)=O)C[C@@H](c3ccc(-c4ccccc4)cc3)N21`, the Potency was inconclusive: 56.2 µM [inhibitor, partial curve, poor fit].
